Assay results from ChEMBL document CHEMBL1201862, “PubChem BioAssay data set” (2004).
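Dose response: 5 concentrations. Exposure: 48 h. Format: 96-well plates. Endpoint: linear interpolation; highest concentration if not reached. Here, GI50 denotes the concentration required for 50% inhibition of growth.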 Active and inactive are the calls of the source. Cut-off read from the data, not from the text of the source: active = GI50 up to about 1.1 µM and inactive = higher.

system: NCI-H322M; experiment: NCI-60 cell line screen, 48 h

Structure (SMILES)	GI50
COc1ccc(N2N=NN(C(C)C)/C2=C(/Cl)c2nnnn2-c2ccc(OC)cc2)cc1	inactive: 16.4 µM
CCCOC(=O)C1C(c2ccc(OC)cc2)NC(c2ccc(OC)cc2)C(C(=O)OCCC)S1(=O)=O (stereo not given)	inactive: > 10 µM
C(=C\c1cc(CCc2nc3ccccc3[nH]2)n[nH]1)/c1ccccc1	inactive: > 100 µM
CC1(C)CCCCCCCCCC2CC2CCC(C)(C)C1=O (stereo not given)	inactive: 21.3 µM
O=C1/C(=C\c2ccccc2)c2ccccc2N1Cc1ccccc1	inactive: 9.82 µM
COC(=O)[C@@H]1[C@H]2CC[C@]3(C)[C@@H](OC(C)=O)CC[C@H]3[C@@H]2CC[C@H]1C1(C)SCCS1	inactive: 43.3 µM
O=C1C(Cl)=C(N2C(=O)CCCC2=O)C(=O)c2ccccc21	inactive: > 100 µM
COc1ccc2c(c1)C(=O)c1ccccc1C2	inactive: 88.3 µM
C/C=C1\CN2CCc3c([nH]c4ccccc34)C2CC1CCO (stereo not given)	inactive: > 100 µM
C[C@]12CCC(=O)C(O)=C1CC[C@@H]1C2CC[C@]2(C)Nc3c(cnn3-c3ccccc3)CC12 (stereo not given in full)	inactive: 59.8 µM
O=C1OCC2(CO1)CC1C=CC2C1 (stereo not given)	inactive: > 100 µM
CCOC(=O)NN(C(=O)OCC)C(C(=O)c1ccccc1)N(NC(=O)OCC)C(=O)OCC	inactive: > 100 µM
CC(=O)OC/C=C/[C@H](O[Si](C)(C)C(C)(C)C)[C@@H](O)/C=C/COC(C)=O	inactive: > 100 µM
O=C(O)COc1cc(-c2ccccc2)nc2cc(F)ccc12	inactive: > 100 µM
CCOC(=O)c1cn(-c2ccccc2)c(=S)n2c1nc1ccccc12	inactive: > 65.8 µM
CCN1C[C@]2(COC)[C@H](O)C[C@H](OC)[C@]34C1[C@H]([C@H](OC)[C@H]23)[C@]1(OC(C)=O)[C@H]2[C@@H](OC(=O)c3ccccc3)[C@](O)(C[C@H]24)[C@@H](OC)[C@@H]1O	inactive: > 100 µM
COC(=O)C(Cl)=C1CC1	inactive: > 100 µM
CC1C2=C(CCCC2=O)N(c2ccc(Cl)cc2)C2=C1C(=O)CCC2	inactive: 79.8 µM

Structure (SMILES)	GI50
C=CCC1(CN(C)C)CC/C(=C\c2cc(OC)c(OC)c(OC)c2)C1=O (stereo not given)	inactive: 32.2 µM
CNNC(=NS(=O)(=O)c1cc(C#N)c(NNC)cc1S)NNC	inactive: > 10 µM
CC1(C)CCC[C@@]2(C)C1CC[C@@]1(CO1)[C@@H]2/C=C\C(C=O)CC=O (stereo not given in full)	inactive: > 100 µM
C=C(C)C1CC2(C)C(C)CC(OC(=O)/C(C)=C\C)CC2C(OC(=O)/C(C)=C\C)C1O (stereo not given)	inactive: > 100 µM
CC(=O)NC1COC(COC(=O)CCCCCCCCCCNC(=O)c2ccc([N+](=O)[O-])c3c(=O)c4ccccc4[nH]c23)C(O)C1OC(C)C(=O)NC(C(=O)NC(CCC(N)=O)C(=O)OCc1ccccc1)C(C)C (stereo not given)	inactive: 11.5 µM
Cc1ccc(S(=O)(=O)NC(=O)NCC(N)=O)cc1	inactive: > 100 µM
CC(Br)CN1CCOCC1 (stereo not given)	inactive: > 100 µM
Cc1ccc(/C=C/C(=O)c2ccc([N+](=O)[O-])cc2)cc1	inactive: > 100 µM
COc1ccccc1OCC(COC(=O)Nc1ccccc1)OC(=O)Nc1ccccc1 (stereo not given)	inactive: > 100 µM
CN(/N=C\c1ccnc2ccccc12)c1ccc([N+](=O)[O-])cc1	inactive: > 100 µM
O=C(O)CSc1nnc(-c2ccccc2O)[nH]1	inactive: > 100 µM
CC(C)=CCNc1ncnc2c1ncn2CCC(=O)O	inactive: > 100 µM
CC1=CC(C)C/C=C/C2C3OC3(C)C(C)C3C(Cc4c[nH]c5ccccc45)NC(=O)C23C(=O)C=CC(=O)C1O (stereo not given)	inactive: 15 µM
O=P1(c2ccccc2)C2=CCC=CC2C(c2ccccc2)N1Cc1ccccc1 (stereo not given)	inactive: 17.6 µM
CC(=O)c1ccc(NC(=O)/C(=N\NC(N)=O)C(C#N)CC(C)(C)C=O)cc1 (stereo not given)	inactive: > 100 µM
C[n+]1c2ccccc2cc2c(CNC(CCCNC(=N)N)C(=O)O)cccc21 (stereo not given)	inactive: 5.14 µM
C#CCn1ncc2c(SCc3ccccc3)ncnc21	inactive: > 100 µM
